{
  "source": "patent US5710022",
  "about": "“Nuclear mitotic phosphoprotein” (Board of Regents of the University of Texas System, dated 1998)",
  "target": "purified p56-RB (Homo sapiens (Human), UniProt P06400)",
  "test": "blot of purified GST fusion proteins probed with the Rb-sandwich",
  "excerpt": "(A) Two identical blots containing seven purified MBP fusion proteins were probed with either the \"Rb-sandwich\" (lanes 1–7) or with an antibody to MBP (New England Biolabs) (lanes 8–14). […] (B) Similarly, two identical blots of the purified GST-fusion proteins were probed with either the \"Rb-sandwich\" (lanes 15–17) or with an antibody to GST (lanes 18–20). […] (C) A diagram of the different constructs used in this experiment. […] (D) Sequence comparison of the Rb-binding region of mitosin with the Rb-binding domain of E2F-1 (in bold letters) and neighboring residues (SEQ. ID NOS: 3 and 4). […] Dashed lines indicate conserved residues and solid lines indicate identical residues.",
  "data": [
    {"binder": "GST alone (other) not shown", "values": [
      {"measurement": "binding result", "value": "no binding"}
    ]}
  ]
}
